For 93 compounds, Potency results are on record in PubChem BioAssay AID360 (National Center for Advancing Translational Sciences (NCATS), 2006).

The structures appear in SMILES notation. Hit rate of the full screen: of about 48,000 compounds, about 550 (1.1%) were called active. Another 4% or so got no clear call; they are omitted. Rule as the data show it: active = potency below about 15 µM; inconclusive = mostly about 16 µM to 33 µM; inactive = weaker than that. This is one part of the list.
Potency is read from the fitted curve at half-maximal effect.

The target in this assay is Lysosomal acid glucosylceramidase (Homo sapiens) (UniProt P04062). The assay is described as follows: Glucocerebrosidase.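 Also: the screen sought inhibitors.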 Conditions: purified enzyme, resorufin glucoside fluorescence (screen aimed at inhibitors), 20 min; series mostly up to 77 µM. The procedure, abridged: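 Wild-type enzyme at 0.2 nM final in 50mM citric acid/KH2PO4, 10mM sodium taurocholate, 0.01% tween-20, pH 5.9, with resorufin beta-D-glucopyranoside at 30 uM final. Compounds titrated, 20 min at RT, red fluorescence read; AC50 from titration.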
Sequence of UniProt P04062 (P04062 whole entry, looked up): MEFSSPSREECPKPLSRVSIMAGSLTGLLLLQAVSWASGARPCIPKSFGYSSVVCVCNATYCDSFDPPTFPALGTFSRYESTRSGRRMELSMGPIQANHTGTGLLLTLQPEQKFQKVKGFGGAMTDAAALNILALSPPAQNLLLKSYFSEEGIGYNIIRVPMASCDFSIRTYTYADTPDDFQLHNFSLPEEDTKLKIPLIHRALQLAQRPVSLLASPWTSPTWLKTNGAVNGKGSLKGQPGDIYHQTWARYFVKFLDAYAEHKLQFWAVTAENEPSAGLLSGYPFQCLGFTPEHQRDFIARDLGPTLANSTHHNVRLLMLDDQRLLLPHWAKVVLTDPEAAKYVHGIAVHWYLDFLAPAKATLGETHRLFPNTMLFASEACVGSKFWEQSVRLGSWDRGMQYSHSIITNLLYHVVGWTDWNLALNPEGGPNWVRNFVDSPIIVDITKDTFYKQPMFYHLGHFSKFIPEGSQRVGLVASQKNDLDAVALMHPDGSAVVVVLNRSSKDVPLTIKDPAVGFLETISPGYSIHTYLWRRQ
For the compound `O=C(NCc1ccc(N2CCCC2=O)cc1)c1cn(CCc2ccccc2)nn1`, the Potency is inactive: > 76.9 µM. With `Cc1ccccc1OCc1nnc2c3cnn(C)c3ncn12` the figure was inactive: > 76.9 µM.

With `COCCn1c(Cc2ccccc2)nnc1SCC(=O)N(C)C`, the Potency was inactive: > 76.9 µM. For the compound `Nc1ccc2oc(-c3cccs3)nc2c1`, the Potency is inactive: > 76.9 µM. With `O=C(CSc1nnc(-c2cnccn2)n1Cc1ccco1)c1ccc(Cl)c(Cl)c1` the figure was inactive: > 76.9 µM; with `COc1ccc2c(c1)c(=O)oc1cc(OCC(=O)NC3CC3)ccc12`, inactive: > 76.9 µM; with `O=C(O)CSc1ccc2ccccc2n1`, inactive: > 76.9 µM. Regarding `Cc1cc(C)nc(NC2=NCC(=O)N2CCc2c[nH]c3ccccc23)n1`, the Potency was inactive: > 76.9 µM.

Turning to `COC(=O)CCC(=O)N1CCc2cc(S(=O)(=O)N3CCc4ccccc43)ccc21`, the Potency is inactive: > 76.9 µM. The same measure for `Cc1sc(CO)c(Sc2ccccc2)c1C(=O)O`: inactive: > 76.9 µM; for `O=C(NC1(C(F)(F)F)NC(=O)N(Cc2cccnc2)C1=O)c1ccncc1` (stereo not drawn): inactive: > 76.9 µM. Consider `COc1ccc(NC(=O)c2cc(OC)c(OC)c(OC)c2)cn1`, for which the Potency was inactive: > 76.9 µM. As to `O=S(=O)(c1cccc2cccnc12)n1cnc2ccccc21`, the Potency is inactive: > 76.9 µM. The same measure for `O=C(O)CCCCCN=C1CCc2ccccc2N1`: inactive: > 76.9 µM; for `CCCCOP(=O)(c1ccc(N(C)C)cc1)C(O)c1ccccc1F` (stereo not drawn): inactive: > 76.9 µM; for `CCCN(C#N)c1nc(NCC)nc(NC(C)C)n1`: inactive: > 76.9 µM. Consider `COc1ccccc1Cc1nc(-c2ccc(C)cc2)no1`, for which the Potency was inactive: > 76.9 µM. The same measure for `Cc1ncoc1C(=O)Nc1cccc(Cl)c1C`: inactive: > 76.9 µM; for `Cc1ccc(OC(=O)CCc2c(C)nc3ncnn3c2C)cc1`: inactive: > 76.9 µM. In the case of `CC(=O)Nc1cc(NC(C)=O)cc(C(=O)OCC(=O)N2CC(C)OC(C)C2)c1` (stereo not drawn), the Potency was inactive: > 76.9 µM. With `Cc1ccc2c(c1)N(CC(=O)N1CCc3ccccc3C1)C(=O)CO2` the figure was inactive: > 76.9 µM; with `CCOc1ccc(-c2nnn(CC(=O)c3ccc4c(c3)OCCO4)n2)cc1OCC`, inactive: > 76.9 µM; with `CCOC(=O)C1CCCN(c2c(NCCCN(C)Cc3ccccc3)c(=O)c2=O)C1` (stereo not drawn), inactive: > 76.9 µM.

`CCN1C(=O)C(NC(C)=O)c2cc(Br)ccc21` (stereo not drawn): the Potency is inactive: > 76.9 µM.

In the case of `Cc1ccc(Cl)cc1N1CCN(S(=O)(=O)c2c(C)[nH]c(=O)[nH]c2=O)CC1`, the Potency is inactive: > 76.9 µM.

Turning to `O=C(Cc1cccs1)N(c1ccc(Cl)cc1)C1C=CS(=O)(=O)C1` (stereo not drawn), the Potency is inactive: > 76.9 µM. As for `Cc1cnc(-c2nnc(N(C)C(=O)c3ccccn3)s2)cn1`, the Potency is inactive: > 76.9 µM.

On to `COc1ccccc1C1CC(c2ccc(F)cc2)Nc2ncnn21` (stereo not drawn), for which the Potency is inactive: > 76.9 µM. Take `COc1ccc(CN(CC(=O)NCc2ccco2)C(=O)CCC(=O)Nc2nccs2)cc1`: the Potency is inactive: > 76.9 µM.

Regarding `O=C(NCc1cccnc1)c1c(F)c(F)c(F)c(F)c1F`, the Potency is inactive: > 76.9 µM. With `CSC1CCCCC1(O)CSc1nc2c(cc1C#N)CCCC2` (stereo not drawn) the figure was inactive: > 76.9 µM; with `CCCCCn1c(SCC2CCCO2)nc2cc(C(=O)N3CCC(C(N)=O)CC3)ccc2c1=O` (stereo not drawn), inactive: > 76.9 µM. The same measure for `CCCCn1c(CN2CCN(C(=O)OCC)CC2)nc2c1c(=O)n(C)c(=O)n2C`: inactive: > 76.9 µM; for `O=C(c1ccco1)N1CCN(S(=O)(=O)c2ccc(Br)s2)CC1`: inactive: > 76.9 µM; for `COc1ccc(-c2cc(C(F)(F)F)nc(S(C)(=O)=O)n2)cc1OC`: inactive: > 76.9 µM.

On to `COC(=O)c1cc(C(=O)OC)cc(N2C(=O)CC(N3CCN(c4ccccc4)CC3)C2=O)c1` (stereo not drawn), for which the Potency was inactive: > 76.9 µM.

`Cc1ccnc(SCC(=O)N2CCN(c3cccc(Cl)c3)CC2)n1`: the Potency was inactive: > 76.9 µM. The same measure for `Cc1cc(C(=O)CSc2nc3ccccc3n2CCC#N)c(C)n1Cc1cccs1`: inactive: > 76.9 µM; for `Cc1nc2nc3c(cn2n1)C(=O)CC(c1ccccc1)C3` (stereo not drawn): inactive: > 76.9 µM. With `Cc1ccc(C2C(C(=O)c3cccs3)=C(O)C(=O)N2CCN2CCOCC2)o1` (stereo not drawn) the figure was inactive: > 76.9 µM; with `O=C(Nc1cnccn1)c1cccc(C(F)(F)F)c1`, inactive: > 76.9 µM. With `CCC(CC)C(=O)Nc1c2c(nn1-c1ccc(OC)cc1)CS(=O)(=O)C2` the figure was inactive: > 76.9 µM; with `O=c1c2c(nc3nc(CCc4ccccc4)[nH]n13)CCC2`, inactive: > 76.9 µM; with `COCCN(CCOC)S(=O)(=O)c1ccc(C(=O)NCCCN2CCOCC2)cc1`, inactive: > 76.9 µM.

With `O=C(c1ccc(=O)[nH]c1)N(Cc1ccco1)C1(C(=O)NC2CCCCC2)CCCCC1`, the Potency is inactive: > 76.9 µM.

Take `CC(C)CN(C#N)c1nc(N2CCOCC2)nc(N2CCOCC2)n1`: the Potency is inactive: > 76.9 µM.

As for `CCOC(=O)CC(=O)CSc1ccc2nnc(-c3ccc(C)cc3)n2n1`, the Potency is inactive: > 76.9 µM. With `COc1cccc(-n2nnnc2SCC(=O)NCCc2ccccc2)c1` the figure was inactive: > 76.9 µM; with `NC(=O)C1CCN(C(=S)c2cccs2)CC1`, inactive: > 76.9 µM. The same measure for `Cc1ccc(CNC(=O)CCCNC(=O)c2ccc(Cl)cc2)n1C`: inactive: > 76.9 µM; for `C/C(Nc1cccc(F)c1)=C(/C#N)C(N)=O`: inactive: > 76.9 µM; for `CC1=CC(=O)OC1Cc1ccncc1` (stereo not drawn): inactive: > 76.9 µM. Take `COc1ccc2[nH]c(=O)c(CN(C)C(=O)c3ccncc3)cc2c1`: the Potency is inactive: > 76.9 µM. The same measure for `COc1ccccc1NC(=O)C1=C(C)Nc2nnnn2C1c1ccccc1OC` (stereo not drawn): inactive: > 76.9 µM; for `O=C(c1ccccc1)c1coc2ccc(O)c(CN3CCOCC3)c12`: inactive: > 76.9 µM.

In the case of `O=C(CCN1C(=O)c2ccccc2C1=O)Nc1ccc(-c2nc3ccccc3o2)cc1`, the Potency is inactive: > 76.9 µM. For the compound `OCCN(Cc1ccccc1)Cc1ccccc1F`, the Potency was inactive: > 76.9 µM. For the compound `CCNc1nc(NCC)nc(OCCOC(=O)c2ccccc2)n1`, the Potency was inactive: > 76.9 µM. With `C=CCOn1c(=O)c(=O)n(OCc2ccccc2)c2ccccc21` the figure was inactive: > 76.9 µM. As to `CCn1c2ccccc2c2nnc(SCC(=O)NCCOC)nc21`, the Potency is inactive: > 76.9 µM. With `CCCCOc1ccc(OCCNS(=O)(=O)N(C)C)cc1` the figure was inactive: > 76.9 µM; with `COC(=O)c1sc(NC(=O)c2ccc(Cn3cc(Cl)cn3)o2)c(C#N)c1C`, inactive: > 76.9 µM; with `COc1ccccc1N(CC(=O)NC1CCCC1)C(=O)CCC(=O)Nc1cc(C)on1`, inactive: > 76.9 µM. With `O=C(NCCc1ccccc1)C1CCN(S(=O)(=O)c2cccc3nsnc23)CC1` the figure was inactive: > 76.9 µM; with `C=CCN1CCN(C(c2cc(OC)ccc2OC)c2nnnn2CC2CCCO2)CC1` (stereo not drawn), inactive: > 76.9 µM. Take `Cc1ccc(NCc2nnc(SCC(=O)c3ccc4c(c3)OCCO4)o2)c(C)c1`: the Potency is inactive: > 76.9 µM.

In the case of `COc1cccc(NC(=O)c2ccccc2-c2nc(-c3ccc(F)cc3)no2)c1`, the Potency is inactive: > 76.9 µM. On to `O=S(=O)(NCc1ccco1)N1CCCCCC1`, for which the Potency was inactive: > 76.9 µM. For the compound `C=CCc1c(C)c(C#N)c2nc3ccccc3n2c1NCCN(C)C`, the Potency is inactive: > 76.9 µM. Regarding `COCC(=O)Nc1nc2n(n1)C(c1ccc(Cl)cc1)CC(c1ccc(OC)cc1)N2` (stereo not drawn), the Potency is inactive: > 76.9 µM. With `Cc1csc(=Nc2ccc(S(=O)(=O)N3CCOCC3)cc2)n1Cc1ccco1` the figure was inactive: > 76.9 µM; with `CCn1c(SCC(=O)c2ccc(C)cc2)nnc1-c1ccoc1C`, inactive: > 76.9 µM; with `CCOC(=O)c1oc2ccccc2c1NC(=O)c1ccc2c(c1)OCO2`, inactive: > 76.9 µM.

Take `CCN(CC(=O)Nc1ccc2c(c1)OCO2)Cc1nc2ccccc2c(=O)[nH]1`: the Potency is inactive: > 76.9 µM.

Regarding `CCOC(=O)C1CCN(CC(=O)c2c(C)[nH]c3cc(C)ccc23)CC1`, the Potency was inactive: > 76.9 µM. With `CC(=O)Nc1ccc(N2C(=O)CC(N3CC(C)OC(C)C3)C2=O)cc1` (stereo not drawn) the figure was inactive: > 76.9 µM; with `COc1cccc(NC(=O)CSc2nnnn2C(C)C)c1`, inactive: > 76.9 µM; with `CCOC(=O)C1=C(C)NC(=O)NC1c1ccoc1` (stereo not drawn), inactive: > 76.9 µM.

Turning to `COC(=O)c1nc(-c2ccccc2)n[nH]1`, the Potency is inactive: > 76.9 µM.

Turning to `Nc1ncnc2c1ncn2CCN1CCCCC1`, the Potency was inactive: > 76.9 µM. `COc1cc(-c2n[nH]c(=O)o2)cc(OC)c1OC`: the Potency was inactive: > 76.9 µM.

As to `CCN(CC)CCCn1c(=S)[nH]c2ccc(Cl)cc2c1=O`, the Potency is inactive: > 76.9 µM. The same measure for `COc1cccc(CC(=O)NCC2COc3ccccc3O2)c1OC` (stereo not drawn): inactive: > 76.9 µM; for `CCOC(=O)CNC(=O)CSc1nnc(-c2cccc(OC)c2)n1CC`: inactive: > 76.9 µM; for `O=C(O)CCC(=O)N1CCc2cc(S(=O)(=O)NC3CCCC3)ccc21`: inactive: > 76.9 µM. Turning to `CCCC(=O)Nc1cc(C)c(NC(=O)Cc2ccccc2)cn1`, the Potency is inactive: > 76.9 µM. The same measure for `O=C(NCCCN1CCN(Cc2ccccc2Cl)CC1)Nc1ccccc1`: inactive: > 76.9 µM. With `O=C(CCCOc1ccccc1)Nc1nccs1` the figure was inactive: > 76.9 µM. Turning to `O=C(O)CN(Cc1ccccc1)S(=O)(=O)c1ccc(F)cc1`, the Potency was inactive: > 76.9 µM.

For the compound `c1ccc(-c2cnnc(SCc3cn4cccnc4n3)n2)cc1`, the Potency is inactive: > 76.9 µM.

On to `Clc1ccc(CSc2nnc(-c3ccncc3)o2)cc1`, for which the Potency is inactive: > 76.9 µM. With `CN1CCN(C(=O)c2cc(-c3ccccc3)on2)CC1` the figure was inactive: > 76.9 µM. The same measure for `Cc1cc(C)n(-c2ccc(C(=O)OCn3nnc4ccccc4c3=O)cc2)n1`: inactive: > 76.9 µM.
